Test results reported in the supplement of paper PMC12217912.
Some of the results follow. Sequences were assembled here from the parent chain. Values near 0.05 are background.

B1: TEV protease; numbered along this chain (parent)
chain: MGESLFKGPRDYNPISSSICHLTNESDGHTTSLYGIGFGPFIITNKHLFRRNNGTLVVQSLHGVFKVKDTTTLQQHLVDGRDMIIIRMPKDFPPFPQKLKFREPQREERICLVTTNFQTKSMSSMVSDTSCTFPSGDGIFWKHWIQTKDGQCGSPLVSTRDGFIVGIHSASNFTNTNNYFTSVPKNFMELLTNQEAQQWVSGWRLNADSVLWGGHKVFMVKPEEPFQPVKEATQL

Variants of: B1
Assay: raw area under fraction-flipped curve 0-4 h after induction (AUC4h, not background-subtracted), DNA-recorder readout of cleavage of the substrate (dimensionless); higher = more cleavage of the substrate by the protease variant
Details: temperature: 34 °C; time window: 0-4 h after rhamnose induction
Protocol: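 In vivo DNA recorder in E. coli TOP10(DE3) ΔrhaA at 34 °C. Each TEVp single-site mutant (parent TEVp 0) is paired with a single-site variant of the 7-mer TEVs (canonical ENLYFQ|S). The substrate sits between flexible linkers in a Bxb1-sfGFP-TEVs-SsrA fusion, so cleavage stabilises Bxb1 and speeds flipping of a recombination array, read by NGS. The value is the raw area under the fraction-flipped curve over 0-4 h after rhamnose induction (AUC4h), with ≥20 reads per time point. It is not background-subtracted; inactive controls average about 0.047.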
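Further: Bxb1 expression induced with 0.2% (w/v) L-rhamnose at OD600 near 0.5, cultures sampled hourly, flipped fraction per protease–substrate barcode pair counted by paired-end Illumina sequencing.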

Variant	area with substrate ENLYFQA	area with substrate ENLYFQC	area with substrate ENLYFQD	area with substrate ENLYFQE	area with substrate ENLYFQI	area with substrate ENLYFQL	area with substrate ENLYFQM	area with substrate ENLYFQP	area with substrate ENLYFQR	area with substrate ENLYFQS	area with substrate ENLYFQT	area with substrate ENLYFQW	area with substrate ENLYFQG	area with substrate ENLYFQN	area with substrate ENLYFQV	area with substrate ENLYFQY	area with substrate ENLYFQQ	area with substrate ENLYFQF	area with substrate ENLYFQK	area with substrate ENLYFQH
MGESLFKGPRDYNPISSSICHLTNESDGHTTSLYGIGFGPFIITNKHLFRRNNGTLVVQSLHGVFKVKDTTTLQQHLVDGRDMIIIRMPKDFPPFPQKLKFREPQREERICLVTTNFQTKSMSSMVSDTSCTFPSGDGIFWKHWIQTKDGQCGSPLVSTRDGFIVGIHSASIFTNTNNYFTSVPKNFMELLTNQEAQQWVSGWRLNADSVLWGGHKVFMVKPEEPFQPVKEATQL [N172I]	0.0547	0.0585	0.03	0.0511	0.0596	0.0547	0.0601	0.0547	0.0591	0.0607	0.0653	0.0334								
MGESLFKGPRDYNPISSSICHLTNESDGHTTSLYGIGFGPFIITNKHLFRRNNGTLVVQSLHGVFKVKDTTTLQQHLVDGRDMIIIRMPKDFPPFPQKLKFREPQREERICLVTTNFQTKSMSSMVSDTSCTFPSGDGIFWKHWIQTKDGQCGSPLVSTRDGFIVGIHSASNFTNTNNYFTSVPKNFMELLTNQEAQQWVSGWRLNADSHLWGGHKVFMVKPEEPFQPVKEATQL [V210H]	0.101	0.0916						0.0616	0.0638	0.0848	0.064	0.0587	0.0847	0.0575	0.0289	0.0652				
MGESLFKGPRDYNPISSSICHLTNESDGHTTSLYGIGFGPFIITNKHLFRRNNGTLVVQSLHGVFKVKDTTTLQQHLVDGRDMIIIRMPKDFPPFPQKLKFREPQREERICLVTTNFQTKSMSSMVSDTSCTFPSGDGIFWKHWIQTKDGQCGSPLVSTRDGFIVGIHSASNFTNTNNYFTSVPKNFMELLTNQEAQQWVSGWRLNADSVLWGGHKVFMVKPVEPFQPVKEATQL [E223V]	0.0748		0.0737	0.0504	0.0757		0.102	0.0899		0.0929	0.0679		0.104				0.0866			
MGESLFKGPRDYNPISSSICHLTNESDGHTTSLYGIGFGPFIITNKHLFRRNNGTLVVQSLHGVFKVKDTTTLQQHLVDGRDMIIIRMPKDFPPFPQKLKFREPQREERICLVTTNFQTKSMSSMVSDTSCTFPSGDGIFWKHWIQTKDGQCGSPLVSTRDGFIVGIHSASNFTNTNNYFTSVPKNFMELLTNQEAQQWVSGWRLNADSVLWGGHKFFMVKPEEPFQPVKEATQL [V217F]	0.0748	0.0809	0.0819		0.0618		0.031		0.063	0.0883	0.0573		0.0814			0.0698		0.0613	0.0657	
MGESLFKGPRDYNPISSSICHLTNESDGHTTSLYGIGFGPFIITNKHLFRRNNGTLVVQSLHGVFKVKDTTTLQQHLVDGRDMIIIRMPKDFPPFPQKLKFREPQREERICLVTTNFQTKSMSSMVSDTSCTFPSGDGIFWKHWIQTKDGQCGSPLVSTRDGFIVGIHSASNFTNTNNYFTSVPKNFMELLTNQEAQQWVSGIRLNADSVLWGGHKVFMVKPEEPFQPVKEATQL [W203I]	0.0589	0.0615	0.0765		0.0568	0.04			0.0344	0.0674	0.0561		0.0473	0.0501	0.0581			0.0606	0.0657	
MGESLFKGPRDYNLISSSICHLTNESDGHTTSLYGIGFGPFIITNKHLFRRNNGTLVVQSLHGVFKVKDTTTLQQHLVDGRDMIIIRMPKDFPPFPQKLKFREPQREERICLVTTNFQTKSMSSMVSDTSCTFPSGDGIFWKHWIQTKDGQCGSPLVSTRDGFIVGIHSASNFTNTNNYFTSVPKNFMELLTNQEAQQWVSGWRLNADSVLWGGHKVFMVKPEEPFQPVKEATQL [P14L]	0.111	0.175			0.0512	0.0872	0.0882		0.0617	0.105	0.0582		0.0353	0.0748		0.0863		0.0673	0.0692	0.0759
MGESLFKGPRDYNPISSSICHLTNESDGHTTSLYGIGFGPFIITNKHLFRRNNGTLVVQSLHGVFKVKDTTTLQQHLVDGRDMIIIRMPKDFPPFPQKLKFREPQREERICLVTTNFQTKSMSSMVSDTSCTFPSGDGIFWKHWIQTKDGQCGSPLVSTRDGFIVGIHSASNFTNTNNYFTSVPKNFMELLTNQEAQQWVSGWRLNAPSVLWGGHKVFMVKPEEPFQPVKEATQL [D208P]	0.0638	0.0867	0.0554	0.0551	0.0365				0.0344	0.0762	0.0565				0.0581			0.0709	0.0609	
MGESLFKGPRDYNPISSSICHLTNESDGHTTSLYGIGFGPFIITNKHLFRRNNGTLVVQSLHGVFKVKDTTTLQQHLVDGRDMTIIRMPKDFPPFPQKLKFREPQREERICLVTTNFQTKSMSSMVSDTSCTFPSGDGIFWKHWIQTKDGQCGSPLVSTRDGFIVGIHSASNFTNTNNYFTSVPKNFMELLTNQEAQQWVSGWRLNADSVLWGGHKVFMVKPEEPFQPVKEATQL [I84T]	0.0669		0.0615		0.0573				0.06	0.0794		0.0541		0.0672	0.0612					
MGESLFKGPRDYNPISSSICHLTNESDGHTTSLYGIGFGPFIITNKHLFRRNNGTLVVQSLHGVFKVKDTTTLQQHLVDGRDMIIIRMPKDFPPFPQKLKFREPQREERICLVTTNFQTKSMSSMVSDTSCTFPSGDGIFWKHWIQTKDGQCGSPLVSTRDGFIVGIHSASNFTNTNNYFTSVPKNFMELLTNQEAQQWVSGWRLNADSVLWGGHKTFMVKPEEPFQPVKEATQL [V217T]	0.076	0.0968			0.0564		0.0599	0.0673	0.0429	0.0785		0.0628	0.0782	0.0767	0.0671		0.0565		0.0634	0.0649
